Measured values reported in the supplement of paper PMC4604168 (melanoma cell lines).
The other results are listed elsewhere or left out. Many values rest on one well or one pass, so single values are uncertain.

Tested on: MEL-HO
Assay: cell count relative to DMSO control; melanoma cells; higher = more viable cells
Conditions: library dose: low library concentration; 72 h
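Note: cell number obtained by counting DAPI-stained nuclei in high-throughput microscope images with image analysis software, screen run in 1,536-well plates.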

Row | SMILES | cell count
1 | CCCCCCCCc1ccc(CCC(N)(CO)CO)cc1 [fingolimod] + NC(=O)Nc1cc(-c2cccc(F)c2)sc1C(=O)N[C@H]1CCCNC1 [AZD7762] (first compound 2 µM, partner dose 0.02 µM) | 92.6%
2 | CCCCCCCCc1ccc(CCC(N)(CO)CO)cc1 [fingolimod] + CO[C@@H]1[C@H](N(C)C(=O)c2ccccc2)C[C@H]2O[C@]1(C)n1c3ccccc3c3c4c(c5c6ccccc6n2c5c31)C(=O)NC4 [Midostaurin] (first compound 2 µM, partner dose 0.08 µM) | 89.5%
3 | Cc1ccc(NC(=O)c2cccc(N(C)C)c2)cc1NC(=O)c1ccc(O)cc1 + CN(C)S(=O)(=O)c1ccc2c(c1)/C(=C/c1cc3c([nH]1)CCCC3)C(=O)N2 [SU6656] (first compound 2 µM, partner dose 0.4 µM) | 82.9%
4 | NC(=O)c1ccc(N(C(N)=O)c2c(F)cccc2F)nc1-c1ccc(F)cc1F + OCCn1cc(-c2cnc3nnn(Cc4ccc5ncccc5c4)c3n2)cn1 [PF04217903] (first compound 0.4 µM, partner dose 1 µM) | 96.8%
5 | CC(C)(C)c1cnc(CSc2cnc(NC(=O)C3CCNCC3)s2)o1 + Cc1cc(N2CCOCC2)cc2[nH]c(-c3c(NC[C@@H](O)c4cccc(Cl)c4)cc[nH]c3=O)nc12 [BMS536924] (first compound 0.01 µM, partner dose 0.2 µM) | 107%
6 | NC(=O)c1ccc(N(C(N)=O)c2c(F)cccc2F)nc1-c1ccc(F)cc1F + NCC(=O)Nc1ccc(-n2nc(C(F)(F)F)cc2-c2ccc3c(ccc4ccccc43)c2)cc1 [OSU03012] (first compound 0.4 µM, partner dose 1 µM) | 89.1%
